Reference: paper PMC7819943, “Rice protein-binding microarrays: a tool to detect cis-acting elements near promoter regions in rice”
Some of the results follow.

Target: T1, OsWOX13 (Oryza sativa, UniProt Q5QMM3 1-267)
T1 sequence: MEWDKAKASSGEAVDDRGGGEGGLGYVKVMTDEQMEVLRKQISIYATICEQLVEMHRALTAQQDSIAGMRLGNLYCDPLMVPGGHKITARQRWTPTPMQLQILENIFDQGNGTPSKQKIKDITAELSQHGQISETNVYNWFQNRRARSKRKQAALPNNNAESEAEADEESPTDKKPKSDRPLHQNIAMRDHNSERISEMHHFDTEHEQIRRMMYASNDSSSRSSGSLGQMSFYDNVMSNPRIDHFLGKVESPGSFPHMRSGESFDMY
Assay: protein-binding microarray (RPBM); PBS, 2% BSA, 51.3 ng/ul salmon testes DNA, 50 uM zinc acetate, 200 nM TF, 25 C, 1 h; high values mean tight binding
Settings: protein: recombinant; tags: N-terminal polyhistidine and DsRed monomer fusion (pET32a); label: CyDye5-dUTP incorporated in the synthesized complementary strand; 3' TTTTT single-stranded linker to array surface; dsDNA, one strand shown
Method in brief: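 The binding signal is fluorescence intensity per array feature (arbitrary units). Readings came from an Axon 4000B scanner after a washed, 2% BSA-blocked, double-stranded custom Agilent array had been incubated for 1 h at 25 °C with 200 nM protein and 50 µM zinc acetate. The protein was a Ni–NTA-purified transcription factor fused N-terminally to polyhistidine and DsRed, expressed in E. coli BL21-CodonPlus.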

Question: Which binding signal does the source give for “TCTTATCTATTAGTAAATCATTTACTCATGGGCTGAGTCTCGGAGTCACCTAGTGCAG” here?
Answer: 6260 fluorescence intensity (a.u.)

Question: Which binding signal does the source give for “GATGAAGATTGATATTACCTGCGGCCGCCGGCGCCGCTGTCGGAGTCACCTAGTGCAG” here?
Answer: 7110 fluorescence intensity (a.u.)

Question: How did the binding signal turn out when “AGACTAATAATAACACAAATTATAGATTCCGCTTGTAAACCGGAGTCACCTAGTGCAG” was run?
Answer: 6720 fluorescence intensity (a.u.)

Question: How did the binding signal turn out when “CCGACCCGTTGGATTGATAAAACCAACTGCTTCCCGCTCCCGGAGTCACCTAGTGCAG” was run?
Answer: 6190 fluorescence intensity (a.u.)

Question: How did the binding signal turn out when “TGTTGATTGCAGGATCAAATCAACTGGCATGCTCATGAACCGGAGTCACCTAGTGCAG” was run?
Answer: 41900 fluorescence intensity (a.u.)

Question: How did the binding signal turn out when “AATATAATTTACTTCATTATATCACTTCACTGCCAATAGCCGGAGTCACCTAGTGCAG” was run?
Answer: 18300 fluorescence intensity (a.u.)

Question: How did the binding signal turn out when “CTAATAATTATTACTTCCTTCATTTATATTATAAGTTGTTCGGAGTCACCTAGTGCAG” was run?
Answer: 39000 fluorescence intensity (a.u.)

Question: With “AATATTAATGTTAATGAATCGGTCTATCTAGATTCATTGTCGGAGTCACCTAGTGCAG” as the sequence, how does the binding signal read?
Answer: 3200 fluorescence intensity (a.u.)

Question: “AAGCATCATTGACGTGATTACCGTCCGGTGACTGACGTACCGGAGTCACCTAGTGCAG” was tested. Which binding signal did it give?
Answer: 20300 fluorescence intensity (a.u.)

Question: Which binding signal does the source give for “CATCAATCACACACGTTGAGAGAACCTAACTCCCTTCGTCCGGAGTCACCTAGTGCAG” here?
Answer: 25200 fluorescence intensity (a.u.)

Question: “TTGACAGCTAGATGAGTCCTCAGATGAATCATGATGGCATCGGAGTCACCTAGTGCAG” was tested. Which binding signal did it give?
Answer: 6220 fluorescence intensity (a.u.)

Question: Which binding signal does the source give for “CCATGATTTGATAATGTGGTGCTACAGTAAACATTTGCTACGGAGTCACCTAGTGCAG” here?
Answer: 39700 fluorescence intensity (a.u.)

Question: With “AATTATTAATACTTAATTAGTCATGTGCTACTCGTTCTGCCGGAGTCACCTAGTGCAG” as the sequence, how does the binding signal read?
Answer: 15000 fluorescence intensity (a.u.)

Question: For “GCAAGTAACTATTAATTGCACATTTCTTGGTTCATTAACTCGGAGTCACCTAGTGCAG”, which binding signal is on record?
Answer: 4570 fluorescence intensity (a.u.)

Question: With “CAAAATTACATGGCTTGTAATGCAACAGCGTTGAGTTTGCCGGAGTCACCTAGTGCAG” as the sequence, how does the binding signal read?
Answer: 4940 fluorescence intensity (a.u.)

Question: Which binding signal does the source give for “TGATAAATTTGGTGTTAAATCTGTAGTTTTGCGATACAACCGGAGTCACCTAGTGCAG” here?
Answer: 6500 fluorescence intensity (a.u.)

Question: With “AGTATTTAATTGGATATAGGTTCATTGTACTAACTAATAACGGAGTCACCTAGTGCAG” as the sequence, how does the binding signal read?
Answer: 10800 fluorescence intensity (a.u.)

Question: How did the binding signal turn out when “CCTTTTAATAACATTATCAATTTCATGATATACTGAGCACCGGAGTCACCTAGTGCAG” was run?
Answer: 7630 fluorescence intensity (a.u.)

Question: “AAATTTTACCAATTACAGTATTACTTAGTAGGGCAAGTTTCGGAGTCACCTAGTGCAG” was tested. Which binding signal did it give?
Answer: 3420 fluorescence intensity (a.u.)

Question: With “GCTTAGGCATGGTGATTAACTGATTGAAATGACCAGTGTTCGGAGTCACCTAGTGCAG” as the sequence, how does the binding signal read?
Answer: 29700 fluorescence intensity (a.u.)

Question: Which binding signal does the source give for “CAGGCTTCCAGCCCAATTAATTAATTAGGAGTAGGATATGCGGAGTCACCTAGTGCAG” here?
Answer: 6320 fluorescence intensity (a.u.)

Question: How did the binding signal turn out when “CTATGTTCAATCTATTATTATATTATGGTGAACTTGTTCACGGAGTCACCTAGTGCAG” was run?
Answer: 5130 fluorescence intensity (a.u.)

Question: With “TCTCGTAAATTAGCTTAGAGATTATGAAATGGGTTTTATCCGGAGTCACCTAGTGCAG” as the sequence, how does the binding signal read?
Answer: 8370 fluorescence intensity (a.u.)

Question: With “TTTATAATGAAATTTCAACCCCTTTACCTTTTGTTTGTTTCGGAGTCACCTAGTGCAG” as the sequence, how does the binding signal read?
Answer: 4890 fluorescence intensity (a.u.)

Question: With “CCTAATTAATATTAAACCACCAAATTAAATCCACACCAAACGGAGTCACCTAGTGCAG” as the sequence, how does the binding signal read?
Answer: 33600 fluorescence intensity (a.u.)

Question: For “AATGATTTCAACTGAAAAGGTCATCAACATCAAAGTTGTACGGAGTCACCTAGTGCAG”, which binding signal is on record?
Answer: 5720 fluorescence intensity (a.u.)

Question: For “TAAAACAACAAATTTAATTGTAAATTACACGTTCAACTTTCGGAGTCACCTAGTGCAG”, which binding signal is on record?
Answer: 10800 fluorescence intensity (a.u.)

Question: For “GGTCATATGTTTCTAATTGAAATGCAAAATCGGGAAAATGCGGAGTCACCTAGTGCAG”, which binding signal is on record?
Answer: 3250 fluorescence intensity (a.u.)

Question: With “GTTTAATTAACCTCCAAATCCCATCATTCTTGATTAACTACGGAGTCACCTAGTGCAG” as the sequence, how does the binding signal read?
Answer: 19500 fluorescence intensity (a.u.)

Question: Which binding signal does the source give for “AGCAAATCATCTCAATTGCTTATAGTTTTCTCGATGATTACGGAGTCACCTAGTGCAG” here?
Answer: 5710 fluorescence intensity (a.u.)

Question: For “GCTAAACTTGTGCTAAATGGATTGAGATTCTCTGCAAGTGCGGAGTCACCTAGTGCAG”, which binding signal is on record?
Answer: 15400 fluorescence intensity (a.u.)

Question: How did the binding signal turn out when “TTAATTTGTTATGATGCACATTTGATCCATTTATAGTTTTCGGAGTCACCTAGTGCAG” was run?
Answer: 9820 fluorescence intensity (a.u.)

Question: How did the binding signal turn out when “ATAAAGTGTCCATCAATTTATTGTCAGCGGCGATCTCATGCGGAGTCACCTAGTGCAG” was run?
Answer: 4910 fluorescence intensity (a.u.)

Question: Which binding signal does the source give for “ACACTTTCAATTACAGGATTTTAAATCTACGTTATACCGACGGAGTCACCTAGTGCAG” here?
Answer: 25100 fluorescence intensity (a.u.)

Question: For “ATGACTTAGATTGTGAAACGGATGAAGTAATATTTTGCCTCGGAGTCACCTAGTGCAG”, which binding signal is on record?
Answer: 14000 fluorescence intensity (a.u.)

Question: “GCACTTAATCAACATCGTGATAAATGGAACACCTCCAGTCCGGAGTCACCTAGTGCAG” was tested. Which binding signal did it give?
Answer: 10100 fluorescence intensity (a.u.)

Question: How did the binding signal turn out when “CATCTAATTGCCACATAAGCGCCACGTCAACGACACGTTGCGGAGTCACCTAGTGCAG” was run?
Answer: 30700 fluorescence intensity (a.u.)

Question: With “GCATGTATCTAATTAACCCTATCTATTTTCATGTATGACACGGAGTCACCTAGTGCAG” as the sequence, how does the binding signal read?
Answer: 8100 fluorescence intensity (a.u.)

Question: With “GTGAAGAACAATAATTGGCAATCTTTGTACTCTTTTGTCACGGAGTCACCTAGTGCAG” as the sequence, how does the binding signal read?
Answer: 39100 fluorescence intensity (a.u.)

Question: With “ATTTACTAATCAAGAGGACCAATAATTCCCTTGACTAGCTCGGAGTCACCTAGTGCAG” as the sequence, how does the binding signal read?
Answer: 11500 fluorescence intensity (a.u.)

Question: With “CAAAGCCAATTATTATAGAGATTGTACAATGAATGACTACCGGAGTCACCTAGTGCAG” as the sequence, how does the binding signal read?
Answer: 9230 fluorescence intensity (a.u.)

Question: For “CATTAATAATTGGTTCCATTTATCATACACACATAACGTCCGGAGTCACCTAGTGCAG”, which binding signal is on record?
Answer: 26500 fluorescence intensity (a.u.)
